Test results as given in the supplement of paper PMC4604168 (melanoma cell lines).
Some of the results follow. Most values come without repeats; read them as rough.

Key:
Experiment in all cases: cell count relative to DMSO control; melanoma cells; higher = more viable cells
Conditions in all cases: library dose: low library concentration; 72 h
MZ2-MEL = test system: MZ2-MEL
MeWo = test system: MeWo
RPMI7951 = test system: RPMI7951
RVH-421 = test system: RVH-421
SkMel28 = test system: SkMel28
SkMel2 = test system: SkMel2
SkMel30 = test system: SkMel30
UACC62 = test system: UACC62
WM115 = test system: WM115
WM1716 = test system: WM1716
WM1745 = test system: WM1745
WM3526 = test system: WM3526
WM3619 = test system: WM3619
WM451Lu = test system: WM451Lu
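Further: cell number obtained by counting DAPI-stained nuclei in high-throughput microscope images with image analysis software, screen run in 1,536-well plates.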

Structure (SMILES)	cell count (MZ2-MEL) [%]	cell count (MeWo) [%]	cell count (RPMI7951) [%]	cell count (RVH-421) [%]	cell count (SkMel28) [%]	cell count (SkMel2) [%]	cell count (SkMel30) [%]	cell count (UACC62) [%]	cell count (WM115) [%]	cell count (WM1716) [%]	cell count (WM1745) [%]	cell count (WM3526) [%]	cell count (WM3619) [%]	cell count (WM451Lu) [%]
CS(=O)(=O)c1ccc(C(=O)Nc2ccc(Cl)c(-c3ccccn3)c2)c(Cl)c1 [vismodegib] + OCc1c[nH]c2ccccc12 [Indole-3-carbinol] (first compound 1 µM, partner dose 0.8 µM)	93.3	103	106	108	93.6	110	86.8	88.3	96.9	94.7	102	105	83.6	106
NC1(c2ccc(-c3nc4ccn5c(=O)[nH]nc5c4cc3-c3ccccc3)cc2)CCC1 + CN1CCN(c2ccc3nc(-c4c(N)c5c(F)cccc5[nH]c4=O)[nH]c3c2)CC1 [Dovitinib] (first compound 0.4 µM, partner dose 0.1 µM)	87.1	79.9	105	82.8	54.9	79.4	68.8	69.5	71.7	89.1	91.8	62.5	82.9	74.9
CN(c1ncccc1CNc1nc(Nc2ccc3c(c2)CC(=O)N3)ncc1C(F)(F)F)S(C)(=O)=O + Cn1nnc2c(C(N)=O)ncn2c1=O [temozolomide] (first compound 0.08 µM, partner dose 2 µM)	89.6	94.3	76.7	98.6	83.1	75.4	86	67.6	77.2	70.1	86.3	88.2	85.6	76.1
CN(c1ncccc1CNc1nc(Nc2ccc3c(c2)CC(=O)N3)ncc1C(F)(F)F)S(C)(=O)=O + C[C@]1(c2nc3c(C(N)=O)cccc3[nH]2)CCCN1 [Veliparib] (first compound 0.08 µM, partner dose 1.4 µM)	88	92.3	62.7	96.5	76.9	85.2	104	93.2	80.5	60.9	83.4	95.8	102	74.1
CN(c1ncccc1CNc1nc(Nc2ccc3c(c2)CC(=O)N3)ncc1C(F)(F)F)S(C)(=O)=O + CNC(=O)c1cc(Oc2ccc(NC(=O)Nc3ccc(Cl)c(C(F)(F)F)c3)cc2)ccn1 [sorafenib] (first compound 0.08 µM, partner dose 0.4 µM)	77.7	100	52.5	94.9	76.2	88.9	117	73.6	82.5	74.1	107	100	88.4	64.1
C=C(c1ccc(C(=O)O)cc1)c1cc2c(cc1C)C(C)(C)CCC2(C)C [Bexarotene] + Cn1c(Nc2ccc(C(F)(F)F)cc2)nc2cc(Oc3ccnc(-c4ncc(C(F)(F)F)[nH]4)c3)ccc21 [CHIR265] (first compound 2 µM, partner dose 0.08 µM)	84.6	79.9	62.7	87	62	87.8	74.7	68.7	82.9	78.3	79.4	82.8	84.3	102
CS(=O)(=O)c1ccc(C(=O)Nc2ccc(Cl)c(-c3ccccn3)c2)c(Cl)c1 [vismodegib] + COc1ccc(Cl)c(Nc2nc3ccccc3nc2NS(=O)(=O)c2cccc(NC(=O)C(C)(C)N)c2)c1 [XL147] (first compound 1 µM, partner dose 0.8 µM)	94.2	106	108	101	86.6	105	131	84.9	100	95.6	103	89	87.2	109
CCCS(=O)(=O)Nc1ccc(F)c(C(=O)c2c[nH]c3ncc(Cl)cc23)c1F + Nc1cccc2c1CN(C1CCC(=O)NC1=O)C2=O [lenalidomide] (first compound 0.08 µM, partner dose 1 µM)	95.6	96.1	110	89.8	91.5	121	133	92.4	112	127	119	81.8	94.2	117
CCCS(=O)(=O)Nc1ccc(F)c(C(=O)c2c[nH]c3ncc(Cl)cc23)c1F + C[C@]1(c2nc3c(C(N)=O)cccc3[nH]2)CCCN1 [Veliparib] (first compound 0.08 µM, partner dose 1.4 µM)	87.5	96.1	96.9	80.8	58.2	97.9	98.4	54.6	79.4	103	85.7	78.1	90.3	83.2
C=C(c1ccc(C(=O)O)cc1)c1cc2c(cc1C)C(C)(C)CCC2(C)C [Bexarotene] + COCC[n+]1c2c(n(Cc3cnccn3)c1C)C(=O)c1ccccc1C2=O [YM155] (first compound 2 µM, partner dose 0.0004 µM)	65.6	79.6	81	83.6	89.9	99	92	101	115	70.3	101	80.7	107	96.2
